T1: Mouse GLP-1R (Mus musculus, UniProt O35659)
T1 construct: expressed in transfected cells; host or cells: HEK-293
T1 sequence (O35659 22-463): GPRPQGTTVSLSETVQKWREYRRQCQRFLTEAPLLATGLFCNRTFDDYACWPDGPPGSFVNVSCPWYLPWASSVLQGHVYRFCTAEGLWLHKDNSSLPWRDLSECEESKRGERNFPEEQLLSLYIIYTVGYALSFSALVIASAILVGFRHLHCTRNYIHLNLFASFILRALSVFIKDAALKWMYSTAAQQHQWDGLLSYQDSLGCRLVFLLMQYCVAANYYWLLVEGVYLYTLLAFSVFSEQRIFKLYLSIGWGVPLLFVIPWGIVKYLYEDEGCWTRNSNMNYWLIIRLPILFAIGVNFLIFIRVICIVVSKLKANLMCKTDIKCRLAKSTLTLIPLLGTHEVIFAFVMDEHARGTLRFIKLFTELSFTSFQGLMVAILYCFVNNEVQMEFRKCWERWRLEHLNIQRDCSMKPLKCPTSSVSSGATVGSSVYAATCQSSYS

B1: 3 (protein)
chain: GHGEGTFTSDKSKQLEEEAVRLFIEWLKAGGPKKIRYSGGGGGGGSGGGGSGGGGSA[… human IgG4 Fc with changes …]GGGSGSAHPIPDSSPLLQFGGQVRQRYLYTDDACQTEAHLEIREDGTVGGAADQSPESLLQLKALKPGVIQILGVKTSRFLCQRPDGALYGSLHFDPEACSFRELLLEDGYNVYQSEAHGLPLHLPGCKSPHRDPAPRGPARFLPLPGLPPAPPEPPGILAPQPPDVGSSDPLSMVGSQGRSPSYAS
modifications: Fusion Protein
B2: 5 (protein)
chain: GHGEGTFTSDKSKQLEEEAVRLFIEWLKAGGPKKIRYSGGGGGGGSGGGGSGGGGSA[… human IgG4 Fc with changes …]GGGSGSAHPIPDSSPLLQFGGQVRQRYLYTDDACQTEAHLEIREDGTVGGAADQSPESLLQLKALKPGVIQILGVKTSRFLCQRPDGALYGSLHFDPEACSFRELLLEDGYNVYQSEAHGLPLHLPGCKSPHRDPAPRGPARFLPLPGLPPAPPEPPGILAPQPPDVGSSDPLSMVYPSQGRSPSYAS
modifications: Fusion Protein
B3: 72 (protein)
chain: HGEGTFTSDKSKQLEKRLFRLFIEWLIAGGHSSGKPPPKGGGGGGGSGGGGSGGGGSA[… human IgG4 Fc with changes …]GGGSGSAHPIPDSSPLLQFGGQVRQRYLYTDDACQTEAHLEIREDGTVGGAADQSPESLLQLKALKPGVIQILGVKTSRFLCQRPDGALYGSLHFDPEACSFRELLLEDGYNVYQSEAHGLPLHLPGCKSPHRDPAPRGPARFLPLPGLPPAPPEPPGILAPQPPDVGSSDPLSMVGSQGRSPSYAS
modifications: Fusion Protein
B4: 74 (protein)
chain: HGEGTFTSDKSKQLEKRLVILFIEWLIAGGHSSGKPPPKGGGGGGGSGGGGSGGGGSA[… human IgG4 Fc with changes …]GGGSGSAHPIPDSSPLLQFGGQVRQRYLYTDDACQTEAHLEIREDGTVGGAADQSPESLLQLKALKPGVIQILGVKTSRFLCQRPDGALYGSLHFDPEACSFRELLLEDGYNVYQSEAHGLPLHLPGCKSPHRDPAPRGPARFLPLPGLPPAPPEPPGILAPQPPDVGSSDPLSMVGSQGRSPSYAS
modifications: Fusion Protein
B5: 76 (protein)
chain: HGEGTFTSDKSKQLEKRLVRLLIEWLIAGGHSSGKPPPKGGGGGGGSGGGGSGGGGSA[… human IgG4 Fc with changes …]GGGSGSAHPIPDSSPLLQFGGQVRQRYLYTDDACQTEAHLEIREDGTVGGAADQSPESLLQLKALKPGVIQILGVKTSRFLCQRPDGALYGSLHFDPEACSFRELLLEDGYNVYQSEAHGLPLHLPGCKSPHRDPAPRGPARFLPLPGLPPAPPEPPGILAPQPPDVGSSDPLSMVGSQGRSPSYAS
modifications: Fusion Protein
B6: 78 (protein)
chain: HGEGTFTSDKSKQLEKRLVRLFYEWLIAGGHSSGKPPPKGGGGGGGSGGGGSGGGGSA[… human IgG4 Fc with changes …]GGGSGSAHPIPDSSPLLQFGGQVRQRYLYTDDACQTEAHLEIREDGTVGGAADQSPESLLQLKALKPGVIQILGVKTSRFLCQRPDGALYGSLHFDPEACSFRELLLEDGYNVYQSEAHGLPLHLPGCKSPHRDPAPRGPARFLPLPGLPPAPPEPPGILAPQPPDVGSSDPLSMVGSQGRSPSYAS
modifications: Fusion Protein
B7: 79 (protein)
chain: HGEGTFTSDKSKQLEKRLVRLFFEWLIAGGHSSGKPPPKGGGGGGGSGGGGSGGGGSA[… human IgG4 Fc with changes …]GGGSGSAHPIPDSSPLLQFGGQVRQRYLYTDDACQTEAHLEIREDGTVGGAADQSPESLLQLKALKPGVIQILGVKTSRFLCQRPDGALYGSLHFDPEACSFRELLLEDGYNVYQSEAHGLPLHLPGCKSPHRDPAPRGPARFLPLPGLPPAPPEPPGILAPQPPDVGSSDPLSMVGSQGRSPSYAS
modifications: Fusion Protein
B8: 80 (protein)
chain: HGEGTFTSDKSKQLEKRLVRLFILWLIAGGHSSGKPPPKGGGGGGGSGGGGSGGGGSA[… human IgG4 Fc with changes …]GGGSGSAHPIPDSSPLLQFGGQVRQRYLYTDDACQTEAHLEIREDGTVGGAADQSPESLLQLKALKPGVIQILGVKTSRFLCQRPDGALYGSLHFDPEACSFRELLLEDGYNVYQSEAHGLPLHLPGCKSPHRDPAPRGPARFLPLPGLPPAPPEPPGILAPQPPDVGSSDPLSMVGSQGRSPSYAS
modifications: Fusion Protein
B9: 81 (protein)
chain: HGEGTFTSDKSKQLEKRLVRLFIYWLIAGGHSSGKPPPKGGGGGGGSGGGGSGGGGSA[… human IgG4 Fc with changes …]GGGSGSAHPIPDSSPLLQFGGQVRQRYLYTDDACQTEAHLEIREDGTVGGAADQSPESLLQLKALKPGVIQILGVKTSRFLCQRPDGALYGSLHFDPEACSFRELLLEDGYNVYQSEAHGLPLHLPGCKSPHRDPAPRGPARFLPLPGLPPAPPEPPGILAPQPPDVGSSDPLSMVGSQGRSPSYAS
modifications: Fusion Protein
B10: 82 (protein)
chain: HGEGTFTSDKSKQLEKRLVRLFIELLIAGGHSSGKPPPKGGGGGGGSGGGGSGGGGSA[… human IgG4 Fc with changes …]GGGSGSAHPIPDSSPLLQFGGQVRQRYLYTDDACQTEAHLEIREDGTVGGAADQSPESLLQLKALKPGVIQILGVKTSRFLCQRPDGALYGSLHFDPEACSFRELLLEDGYNVYQSEAHGLPLHLPGCKSPHRDPAPRGPARFLPLPGLPPAPPEPPGILAPQPPDVGSSDPLSMVGSQGRSPSYAS
modifications: Fusion Protein
B11: 83 (protein)
chain: HGEGTFTSDKSKQLEKRLVRLFIEWLIAVGHSGKPPPKGGGGGGGSGGGGSGGGGSA[… human IgG4 Fc with changes …]GGGSGSAHPIPDSSPLLQFGGQVRQRYLYTDDACQTEAHLEIREDGTVGGAADQSPESLLQLKALKPGVIQILGVKTSRFLCQRPDGALYGSLHFDPEACSFRELLLEDGYNVYQSEAHGLPLHLPGCKSPHRDPAPRGPARFLPLPGLPPAPPEPPGILAPQPPDVGSSDPLSMVGSQGRSPSYAS
modifications: Fusion Protein

Target: T2, Monkey GLP-1R (Macaca fascicularis, UniProt F8V479)
T2 construct: expressed in transfected cells; host or cells: HEK-293
T2 sequence (F8V479 24-463): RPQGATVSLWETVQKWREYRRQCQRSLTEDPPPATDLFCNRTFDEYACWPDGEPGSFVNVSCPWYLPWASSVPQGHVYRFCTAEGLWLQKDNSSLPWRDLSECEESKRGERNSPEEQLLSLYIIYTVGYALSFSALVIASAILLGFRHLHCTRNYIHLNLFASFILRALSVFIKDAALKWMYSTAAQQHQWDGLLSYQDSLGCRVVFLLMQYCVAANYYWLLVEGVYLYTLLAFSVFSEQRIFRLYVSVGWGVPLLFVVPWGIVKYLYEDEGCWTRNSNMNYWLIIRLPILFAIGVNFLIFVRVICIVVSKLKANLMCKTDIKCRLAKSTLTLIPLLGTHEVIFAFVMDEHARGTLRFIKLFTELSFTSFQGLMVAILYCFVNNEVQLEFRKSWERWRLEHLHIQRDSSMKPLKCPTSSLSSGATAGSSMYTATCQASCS
Experiment: HTRF cAMP assay in HEK-293 cells, monkey GLP-1R
Assay type: cell-based
Details: not given
With B1 the EC50 was 0.279 nM. Work on B2 yielded an EC50 of 0.196 nM. Molecule B3 has an EC50 of 0.025 nM. For B4, the EC50 was 0.0137 nM. Work on B5 yielded an EC50 of 0.0403 nM. For B6, the EC50 was 0.0525 nM. Work on B7 yielded an EC50 of 0.296 nM. Work on B8 yielded an EC50 of 0.0425 nM. For B9, the EC50 was 0.0494 nM. In the case of B10, the EC50 is reported as 0.109 nM. B11 showed an EC50 of 0.0281 nM.

Target: T3, Human GLP-1R (Homo sapiens, UniProt P43220)
T3 construct: expressed in transfected cells; host or cells: HEK-293
T3 sequence (P43220 24-463): as the sequence (F8V479 24-463) above, with N112S, S120F, G202S, V205L, F237L, R241W, V249I counted along it
Experiment: HTRF cAMP assay in HEK-293 cells, human GLP-1R
Assay type: cell-based
Details: not given
In the case of B1, the EC50 is reported as 0.212 nM. B2 gave an EC50 of 0.125 nM. Molecule B3 has an EC50 of 0.0204 nM. Molecule B4 has an EC50 of 0.0135 nM. For B5, the EC50 was 0.0392 nM. In the case of B6, the EC50 is reported as 0.051 nM. In the case of B7, the EC50 is reported as 0.243 nM. Work on B8 yielded an EC50 of 0.0486 nM. For B9, the EC50 was 0.0499 nM. B10 showed an EC50 of 0.0901 nM. B11 gave an EC50 of 0.0293 nM.

Tested on: not listed separately
Experiment: Conformational and thermal stability on UNit (intrinsic fluorescence and static light scattering)
Assay type: physicochemical
Details: UNit SLS 266 nm, 5 mg/mL in phosphate buffer pH 7.4
Protocol: Conformational stability and propensity to aggregate was determined simultaneously for the GLP-1RA/FGF21 Fc fusion proteins using a UNit (Unchained Labs, Calif., USA). The UNit combines the analysis of intrinsic fluorescence of a protein or polypeptide to detect unfolding of the protein or polypeptide and a Static Light Scattering (SLS) measurement in order to investigate aggregation behavior.
Data were acquired for the fusion proteins at a concentration of 5 mg/mL formulated in phosphate buffer at pH 7.4. A volume of 9 μL of each sample were loaded into a UNi capillary holder and analyzed in triplicate on the UNit. The temperature was increased from 20 to 95° C. at a constant linear rate of 0.3° C./minutes. The BaryCentric Mean (BCM) indicating the intrinsic fluorescence and SLS signals detected with a 266 nm laser were plotted against the applied temperature in order to obtain melting temperatures (Tm) and aggregation onset temperatures (Tagg). Data were analyzed using the UNit Analysis software v.
For B1, the “Tagg (aggregation onset temperature)” value was 65.3 °C. In the case of B2, the “Tagg (aggregation onset temperature)” value is reported as 63.2 °C.

Same assay, conditions: UNit, 5 mg/mL in phosphate buffer pH 7.4
For B1, the “Tm (melting temperature)” value was 63.9 °C. With B2 the “Tm (melting temperature)” value was 62.6 °C.

Target: T1, Mouse GLP-1R
Experiment: HTRF cAMP assay in HEK-293 cells, mouse GLP-1R
Assay type: cell-based
Details: not given
Molecule B1 has an EC50 of 0.0972 nM. With B2 the EC50 was 0.0965 nM. Molecule B3 has an EC50 of 0.0775 nM. With B4 the EC50 was 0.0183 nM. In the case of B5, the EC50 is reported as 0.19 nM. In the case of B6, the EC50 is reported as 0.323 nM. With B7 the EC50 was 2.51 nM. With B8 the EC50 was 0.0644 nM. B9 gave an EC50 of 0.0674 nM. Molecule B10 has an EC50 of 0.0725 nM. With B11 the EC50 was 0.056 nM.

— US20230250147A1, “GLP-1R AGONISTIC PEPTIDES WITH REDUCED ACTIVITY” (SANOFI, priority 2020, published 2023)
